Measurements as given in article PMC4336329 (PLoS ONE, 2015).
The campaign covered roughly 310,000 compounds. About 14,000 (4.5%) showed an effect of 50% or more. The effect is printed as a negative number. Some of the results follow.

Each compound was assayed against human ether-à-go-go-related gene (hERG) potassium channel (human, UniProt Q12809) (assay: primary screen, population patch clamp on CHO cells stably expressing hERG).
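Further: peak tail current of the secondary pulse compared with the same well before compound.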

Sequence of human ether-à-go-go-related gene (hERG) potassium channel (Q12809 whole entry, looked up): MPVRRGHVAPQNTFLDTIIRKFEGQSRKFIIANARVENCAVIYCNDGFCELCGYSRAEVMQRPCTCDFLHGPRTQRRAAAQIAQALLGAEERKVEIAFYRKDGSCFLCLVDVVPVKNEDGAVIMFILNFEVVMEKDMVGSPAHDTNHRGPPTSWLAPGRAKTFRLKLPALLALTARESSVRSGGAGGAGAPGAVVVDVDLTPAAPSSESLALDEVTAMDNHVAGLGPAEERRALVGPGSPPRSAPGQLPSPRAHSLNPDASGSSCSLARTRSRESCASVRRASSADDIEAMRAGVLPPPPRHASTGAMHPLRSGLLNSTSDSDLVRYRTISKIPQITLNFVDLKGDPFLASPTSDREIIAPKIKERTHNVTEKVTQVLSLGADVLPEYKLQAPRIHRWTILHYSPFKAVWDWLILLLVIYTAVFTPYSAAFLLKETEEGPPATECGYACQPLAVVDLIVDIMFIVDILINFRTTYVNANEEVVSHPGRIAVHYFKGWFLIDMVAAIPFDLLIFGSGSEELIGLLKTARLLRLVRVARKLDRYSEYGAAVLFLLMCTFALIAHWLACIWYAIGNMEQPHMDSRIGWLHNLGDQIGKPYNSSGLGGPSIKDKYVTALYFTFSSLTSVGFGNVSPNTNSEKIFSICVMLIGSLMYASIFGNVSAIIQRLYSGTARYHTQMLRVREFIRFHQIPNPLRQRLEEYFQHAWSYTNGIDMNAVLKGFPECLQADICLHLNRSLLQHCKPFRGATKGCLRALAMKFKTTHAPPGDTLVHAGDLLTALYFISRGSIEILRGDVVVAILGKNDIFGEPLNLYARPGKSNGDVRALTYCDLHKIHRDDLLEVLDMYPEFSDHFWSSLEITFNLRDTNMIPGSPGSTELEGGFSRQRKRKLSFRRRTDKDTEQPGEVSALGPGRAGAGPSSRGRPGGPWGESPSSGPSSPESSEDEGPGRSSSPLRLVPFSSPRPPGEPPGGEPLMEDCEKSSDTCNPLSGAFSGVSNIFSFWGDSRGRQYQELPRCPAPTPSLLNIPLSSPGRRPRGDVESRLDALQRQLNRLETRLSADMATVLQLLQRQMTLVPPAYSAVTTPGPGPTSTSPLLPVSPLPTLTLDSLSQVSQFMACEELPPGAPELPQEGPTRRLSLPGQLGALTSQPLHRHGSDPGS

| SMILES | hERG current change (%, negative = inhibition) at 10uM |
| --- | --- |
| Cc1ccc(S(=O)(=O)NN=C2CCC(C(C)(C)C)CC2)cc1[N+](=O)[O-] (stereo not shown) | -8.37% |
| O=C(N/N=C/c1ccccc1O)C1CC(=O)N(c2ccc(F)cc2)C1 (stereo not shown) | 3.12% |
| CC(C(=O)O)N1C(=O)/C(=C/C=C/c2ccco2)SC1=S (stereo not shown) | 9.15% |
| Cc1nn(C)cc1CNC(=O)C1C2CCC(O2)C1C(=O)O (stereo not shown) | 23.7% |
| CCOC(=O)Cn1c(N2CCCCCC2)nc2c1c(=O)[nH]c(=O)n2C | 9.4% |
| O=C(NCc1ccccc1)C(C(=O)c1ccc(F)cc1)n1ccccc1=O (stereo not shown) | -0.0984% |
| CC(C1CC2CCC1C2)n1c(-c2cccs2)n[nH]c1=S (stereo not shown) | 2.42% |
| COC(=O)c1cc2ccsc2n1CC(=O)NCC1CCCO1 (stereo not shown) | 10.6% |
| Cn1c(=O)cc(OCCCC(=O)Nc2ccccn2)c2ccccc21 | -5.51% |
| COc1ccc(CCNC2=C(Cl)C(=O)N(CCc3ccc(OC)c(OC)c3)C2=O)cc1OC | 6.38% |
| Cc1cc(C)c(NC(=O)C2CCCO2)c(C)c1 (stereo not shown) | 9.23% |
| CCOC(=O)C1=C(C)NC(SCc2cc(=O)[nH][nH]2)=C(C#N)C1c1cccs1 (stereo not shown) | 15.4% |
| CCOc1cc(N2CCOCC2)c(OCC)cc1NC(=O)c1ccc(OC)cc1 | 3.31% |
| Cc1ccnn1CC(=O)N/N=C/c1c[nH]c2ccccc12 | 6.73% |
| COCc1nnc(NC(=O)c2ccc(S(=O)(=O)N(C)C3CCCCC3)cc2)o1 | -2.98% |
| COc1cc(OC)cc(C(=O)NNC(=O)Cc2ccc(OC)c(S(=O)(=O)N3CCOCC3)c2)c1 | -1.89% |
| COC(=O)C1C2C=CC3(CN(Cc4cccs4)C(=O)C13)O2 (stereo not shown) | 4.14% |
| COc1ccc(C(=O)NCCS(=O)(=O)N2CCc3ccccc3C2)cc1OC | -10.1% |
| O=c1cc(-c2ccccc2)oc2cc(OCc3ccccc3)cc(O)c12 | 12.6% |
| CCCc1cc(C(N)=O)c(NC(=O)C2CCCO2)s1 (stereo not shown) | -15.8% |

| SMILES | hERG current change (%, negative = inhibition) at 10uM |
| --- | --- |
| CCOP(=O)(OCC)C(NC(=O)C(F)(F)F)c1ccccc1 (stereo not shown) | 3.57% |
| Nc1ccc2nc3c(=O)[nH]c(=S)[nH]c3nc2c1 | 12.6% |
| O=C(O)c1ccccc1-c1ccc(/C=C2\SC(=O)N(c3ccccc3)C2=O)o1 | 18% |
| CCc1ccc(CN2CCC(n3nccc3NC(=O)c3ccccc3)CC2)o1 | -36% |
| CC(=O)Oc1ccccc1C1C[C@]2(C)CC(=O)NC2N1C(C)=O (stereo partly shown) | 16.7% |
| C=CCn1c(NC(=O)c2ccc(C)cc2)c(C#N)sc1=N | 9.26% |
| COC(=O)Cc1ccc(NC(=O)c2ccc3c(c2)C(=O)N(CC2CCCO2)C3=O)cc1 (stereo not shown) | -3.73% |
| CCc1nnc(NC(=O)CSc2nnc(CSc3nc(C)cc(C)n3)o2)s1 | 3.21% |
| CN1C(N)=NC(=O)/C1=C/c1ccc(F)cc1 | 6% |
| Cc1ccc(C(=O)CCC(=O)N2CCC(C(N)=O)CC2)cc1 | 32% |
| CCCCC(=O)NC(=S)Nc1c(C)cc(Br)cc1C | 2.71% |
| O=C(Cc1ccccc1)c1c[nH]c(C(=O)NCCCn2ccnc2)c1 | 2.28% |
| Cc1ccc(S(=O)(=O)CC(=O)N2CCN(c3ccccc3F)CC2)cc1 | -16.8% |
| CC(C)c1cc(NCCOCCO)n2c(nc3ccccc32)c1C#N | -37.9% |
| CCSc1nc(C)cc(Oc2ccc(=O)n(C)n2)n1 | -0.535% |
| CCN(CC)c1ccc(NC(=O)CN2CCN(CC(=O)Nc3ccccc3F)CC2)cc1 | -64.9% |
| O=C(CCCC(=O)c1ccccc1)Nc1ccc(O)cc1 | 12% |
| COc1cc2c(C(=O)N3CCN(C)CC3)c(C)n(-c3ccccc3)c2cc1Br | -54.7% |
| CCN(CC)CC#CC(C)(C)OC(C)=O | 5.6% |
| O=C(NCC1CCCO1)c1ccc(COc2ccc(Br)cc2)cc1 (stereo not shown) | -13.7% |

| SMILES | hERG current change (%, negative = inhibition) at 10uM |
| --- | --- |
| CCOC(=O)N1CCN(S(=O)(=O)c2ccc(F)c(C(=O)Nc3cc(C)cc(C)c3)c2)CC1 | 1.99% |
| COc1ccc(C2NC(=O)Cc3cc(OC)c(OC)cc32)cc1OC (stereo not shown) | 5.46% |
| CC(C)C(C(=O)NC1CCCC1)N(CC1CCCO1)C(=O)CNS(=O)(=O)c1ccccc1 (stereo not shown) | 15.1% |
| Cc1ncc(CN2CCCC(C(=O)Nc3ccc(-c4ccco4)cc3)C2)cn1 (stereo not shown) | -11.5% |
| COc1ccc(OC)c(C2=Nn3c(nnc3-c3cc(OC)c(OC)c(OC)c3)SC2)c1 | -21% |
| CC(C)CNC(=O)NC(=O)COc1ncnc2sccc12 | 5.9% |
| Cc1ccc(S(C)(=O)=O)cc1C(=O)N1CC(C(N)=O)Oc2ccccc21 (stereo not shown) | 15.6% |
| Cc1nn(CC(=O)c2ccc(Br)s2)c(C)c1[N+](=O)[O-] | -3.49% |
| COc1ccc(OC)c(C2C3CN(C(C)C)CC=C3C(C#N)=C(N)C2(C#N)C#N)c1 (stereo not shown) | -16.2% |
| Cc1ccc(C2(C)NC(=O)N(CC(=O)Nc3nc(-c4ccccn4)cs3)C2=O)cc1 (stereo not shown) | -5.26% |
| O=C(CSc1nc(-c2ccccc2)cc(=O)[nH]1)N1CCc2ccccc21 | 6.68% |
| O=C(NCCc1ccc(F)cc1)C(=O)Nc1cc2c3c(c1)CC(=O)N3CCC2 | -22% |
| CCOc1ccc(NS(=O)(=O)c2ccc(OC)c(C)c2)cc1 | -4.92% |
| O=C1CC(SCc2nc3ccccc3[nH]2)C(=O)N1c1cccc(Cl)c1 (stereo not shown) | -43.6% |
| CCOC(=O)C1=C(c2ccccc2)Nc2ncnn2C1c1ccccn1 (stereo not shown) | 13.6% |
| COC(=O)c1cnc[nH]1 | -2.52% |
| COc1ccc(-c2[nH]ncc2CN2C[C@@H]3CCC[C@H]2C3)c(F)c1 | 8.16% |
| CC(=O)Nc1nnc(Cc2ccccc2)s1 | 8.52% |
